According to article PMC4336329 (PLoS ONE, 2015):
Among all 310,000 compounds or so, about 2,200 (0.71%) showed an effect of 50% or more. Effects have a minus sign here. Some of the results follow.

Molecular target: human ether-à-go-go-related gene (hERG) potassium channel (human, UniProt Q12809)
Assay: primary screen, population patch clamp on CHO cells stably expressing hERG

Sequence of human ether-à-go-go-related gene (hERG) potassium channel (Q12809 whole entry, looked up): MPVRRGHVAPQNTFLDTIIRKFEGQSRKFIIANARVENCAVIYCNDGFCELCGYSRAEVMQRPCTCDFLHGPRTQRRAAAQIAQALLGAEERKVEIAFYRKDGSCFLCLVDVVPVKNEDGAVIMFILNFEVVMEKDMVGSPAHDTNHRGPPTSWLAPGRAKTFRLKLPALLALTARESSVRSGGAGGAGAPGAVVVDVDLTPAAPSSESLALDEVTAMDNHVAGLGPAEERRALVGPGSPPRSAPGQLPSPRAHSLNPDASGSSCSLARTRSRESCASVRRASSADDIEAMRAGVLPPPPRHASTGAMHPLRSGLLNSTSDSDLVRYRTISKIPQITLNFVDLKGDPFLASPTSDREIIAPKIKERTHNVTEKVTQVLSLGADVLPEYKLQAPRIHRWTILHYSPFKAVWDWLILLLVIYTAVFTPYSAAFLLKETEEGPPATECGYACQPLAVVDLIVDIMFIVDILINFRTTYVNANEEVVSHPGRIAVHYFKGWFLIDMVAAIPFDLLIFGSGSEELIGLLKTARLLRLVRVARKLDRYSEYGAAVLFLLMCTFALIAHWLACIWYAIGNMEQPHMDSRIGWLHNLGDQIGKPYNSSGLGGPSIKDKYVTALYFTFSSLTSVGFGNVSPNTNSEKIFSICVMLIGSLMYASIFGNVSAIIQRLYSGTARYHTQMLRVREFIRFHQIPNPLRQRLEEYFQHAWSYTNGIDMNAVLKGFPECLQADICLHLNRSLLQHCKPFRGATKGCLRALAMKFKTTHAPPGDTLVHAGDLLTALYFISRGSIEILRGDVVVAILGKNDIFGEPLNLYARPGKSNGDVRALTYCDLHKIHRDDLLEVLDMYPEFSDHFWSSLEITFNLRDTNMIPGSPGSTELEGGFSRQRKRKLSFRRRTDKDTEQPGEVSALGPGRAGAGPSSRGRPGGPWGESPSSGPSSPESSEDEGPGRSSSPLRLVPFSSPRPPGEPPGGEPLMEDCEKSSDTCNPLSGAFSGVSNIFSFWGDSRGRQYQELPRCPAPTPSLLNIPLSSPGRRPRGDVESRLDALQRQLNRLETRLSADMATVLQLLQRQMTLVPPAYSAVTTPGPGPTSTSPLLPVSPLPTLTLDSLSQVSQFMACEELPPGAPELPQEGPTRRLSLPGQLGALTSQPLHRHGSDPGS

Row | Compound | hERG current change (%, negative = inhibition) at 1uM
1 | COC(=O)c1ccc(OCCOc2ccccc2C)cc1 | 11.4%
2 | CCCN1C2CCCC1CC(NC(=O)C1CCCCC1)C2 (stereo not shown) | 14%
3 | Cc1ccc(S(=O)(=O)NC(=O)Nc2nnc(C3CC3)s2)cc1 | -11.1%
4 | COC(=O)COc1cccc(NC(=O)c2ccc(Cl)cc2)c1 | 8.12%
5 | CCCS(=O)(=O)Nc1cccc(-c2nc3cccnc3s2)c1 | 5.62%
6 | O=C(CSc1ccccc1)OCC(=O)N1CCN(C(=O)c2ccco2)CC1 | 16.4%
7 | CN(Cc1cn(C)nc1-c1ccccc1F)CC1CCN(Cc2ccccc2)CC1 | 3.45%
8 | CCOc1ccccc1N(CC(=O)Nc1ccc2c(c1)OCO2)S(C)(=O)=O | 7.09%
9 | O=C(c1c(F)c(F)c(F)c(F)c1F)N1CCN(Cc2ccc3c(c2)OCO3)CC1 | 9.43%
10 | CC(C)C[C@H](NC(=O)c1[nH]cnc1C(=O)N[C@@H](C)c1ccccc1)C(=O)OC(C)(C)C | 16.3%
11 | Cl.N=c1c2c(n(Cc3ccccc3)c3c1CCC3)CCC2 | 7.98%
12 | CCOc1ccc(-c2ncncc2-c2ccc(OC)cc2)c(O)c1 | -2.07%
13 | CC1C(=O)N2CCCc3cc(S(=O)(=O)N(C)c4ccccc4)cc1c32 (stereo not shown) | 17.8%
14 | CCn1cc(C(=O)OCC(=O)NCc2ccc3c(c2)OCO3)c(=O)c2ccc(C)nc21 | 1.35%
15 | Cc1ccc(NC(=O)CS(=O)CC(=O)NCCCN(C)c2ccccc2)cc1 (stereo not shown) | 3.83%
16 | O=C1/C(=C/c2ccccc2)CSc2sccc21 | 2.58%
17 | O=S1(=O)CCN(Cc2ccccn2)CC1 | -1.36%
18 | O=c1[nH]c2cc3c(cc2cc1C(c1nnnn1Cc1ccccc1)N1CCN2CCCC2C1)OCCO3 (stereo not shown) | 7.96%
19 | O=S(=O)(c1ccccc1)c1cnc(-c2cccnc2)nc1-c1ccc(Cl)cc1Cl | -2.32%
20 | Cc1nc2ccccn2c1C(=O)N/N=C/c1ccccc1[N+](=O)[O-] | 12.5%
21 | CC(C)Cc1nnc(NC(=O)CCC(=O)N2CCN(c3ccc(F)cc3)CC2)s1 | 10.9%
22 | COc1ccc(S(=O)(=O)N2CCOC2CNC(=O)C(=O)NCc2ccccn2)cc1 (stereo not shown) | 1.15%
23 | NS(=O)(=O)c1ccc(NC(=O)C2COc3ccccc3O2)cc1 (stereo not shown) | 14.7%

Row | Compound | hERG current change (%, negative = inhibition) at 1uM
24 | COc1cccc(Nc2c(Nc3cccc(OC)c3)c(=O)c2=O)c1 | 17.5%
25 | Cc1csc(NC(=O)c2cc[n+]([O-])cc2)n1 | -8.87%
26 | COc1ccc2[nH]cc(CCNC(=O)C3CCCCC3)c2c1 | 12.6%
27 | CCCCCCC(=O)Nc1c(O)c2ccccc2[nH]c1=O | 4.53%
28 | O=C(O)Cn1nc(-c2ccccc2)oc1=O | -1.31%
29 | CCC(C)c1ccccc1NC(=O)CN1CCN(C/C=C/c2ccccc2)CC1 (stereo not shown) | -10.5%
30 | N/C(=N\OC(=O)CCCc1ccccc1)c1cccc([N+](=O)[O-])c1 | 3.64%
31 | CCc1cc2c(=O)[nH]c(N3CCOCC3)nc2s1 | 3.31%
32 | COc1ccc(OCCOC(=O)c2ccc(-n3cnnn3)cc2)cc1 | 0.347%
33 | CSc1ccccc1C(=O)N1CCN(S(=O)(=O)c2sc(C(=O)O)c(C)c2C(=O)O)CC1 | 0.019%
34 | CCOC(=O)N1CCN(CC(O)c2ccc3c(c2)CCN3)CC1 (stereo not shown) | 7.76%
35 | COc1cccc(CNC(=O)CCc2nc3cc(S(=O)(=O)N4CCOCC4)ccc3n2C)c1 | 9.08%
36 | Cc1sc2ncnc(N/N=C/c3ccccc3O)c2c1C | 7.96%
37 | N/C(=N\c1nc2c(c(=O)[nH]1)CCCC2)Nc1ccccc1 | -0.122%
38 | Cl.Fc1cccc(Cl)c1CNC(c1ccccc1)c1ccccc1 | 8.24%
39 | CCCC(=O)NC(=S)Nc1ccc(C(C)=O)cc1 | 17.2%
40 | O=C(Nc1ccccc1)c1cc2ccccc2[nH]1 | 8.73%
41 | CC(NC(=O)CNC(=O)c1ccco1)c1ccc(S(N)(=O)=O)cc1 (stereo not shown) | 14.6%
42 | COc1cc(CCC(=O)OCC(=O)Nc2ccc(F)cc2F)cc(OC)c1OC | 19.6%
43 | CCCOc1cccc(C(=O)Nc2cccc(NC(=O)c3ccco3)c2)c1 | 4.36%
44 | COc1ccc(C(=O)COC(=O)CN2C(=O)c3ccccc3C2=O)c(OC)c1 | 6.04%
45 | O=C(NCC1CC1)Nc1cccc(C(F)(F)F)c1 | 14.4%
46 | O=C(CCNS(=O)(=O)c1cccc2nonc12)NCc1cccs1 | 8.08%

Row | Compound | hERG current change (%, negative = inhibition) at 1uM
47 | CCc1ccccc1N1C(=O)C2C3C=CC(CC3)C2C1=O (stereo not shown) | 12.2%
48 | Cc1ccc(S(=O)(=O)NNC(=O)c2csnn2)cc1 | 4%
49 | COc1cc(/C=N/NC(=O)c2ccncc2)ccc1OC(=O)c1cccc(Br)c1 | 3.27%
50 | CCOc1ccc(N2Nc3n[nH]c(N)c3N2)cc1 | 7.16%
51 | CCSc1nc2sc3c(c2c(=O)n1-c1ccc(OC)cc1)CCN(C)C3 | 6.26%
52 | Cc1c(Cl)c([N+](=O)[O-])nn1CC(=O)NCC(C)C | 5.93%
53 | O=C(NC12CC3CC(CC(C3)C1)C2)c1ccc(-c2cccc(Cl)c2)o1 | 21.9%
54 | CC1=C(C)CC(C(=O)NC2CCN(C(C)C)CC2)C(C(=O)O)C1 (stereo not shown) | 17%
55 | CCCCCCNC(=O)CC(c1ccccc1)c1cc(Br)ccc1O (stereo not shown) | 8.74%
56 | CCCCN1C(=O)C(C2c3ccccc3C(=O)N2Cc2ccccc2)C(=O)NC1=S (stereo not shown) | -13.4%
57 | O=C(Cc1cccs1)NCCc1ccc(F)cc1 | 14.5%
58 | Cc1ccc(N(C(=O)Cn2nnc3ccccc32)C(C(=O)NC2CCCCC2)c2cn(C)nc2C)cc1 (stereo not shown) | 15.7%
59 | COc1ccc(-c2ccc(OC)cc2)cc1 | 0.776%
60 | COc1ccc(CN(C)C(=O)c2ccc(NS(=O)(=O)c3ccccc3)cc2)c(OC)c1 | -10.7%
61 | COc1ccccc1N1CCN(C2CCN(C3CCC(c4ccccc4)CC3)CC2)CC1.O=C(O)C(=O)O (stereo not shown) | -34.5%
62 | Cc1ccc(C(=O)NC(=S)NNC(=O)c2ccccc2)cc1 | 25.9%
63 | CC(C)OCCCNC(=O)c1ccc2c(c1)NC(=O)c1ccccc1S2 | 11.9%
64 | CCOC(=O)Cn1cc(/C=N/NC(=O)c2cc3ccccc3o2)c2ccccc21 | 12.9%
65 | O=C(COc1ccc(Cl)cc1)N1CCCCC1 | 4.93%
66 | CCCCN(CCCC)CCCOC(=O)c1ccc(N)cc1 | -13.2%
67 | CC1C(=O)N2CCCc3cc(NC(=O)C(=O)NCCCc4ccccc4)cc1c32 (stereo not shown) | 4.72%
68 | Cc1nnc(SCC(=O)N(CC(C)C)C2CCS(=O)(=O)C2)n1N (stereo not shown) | 13.5%
69 | Cc1ccc(C(=O)N/C(=C/c2ccco2)C(=O)NCCc2c[nH]c3ccccc23)cc1 | 7.53%

Row | Compound | hERG current change (%, negative = inhibition) at 1uM
70 | COc1cc(C(=O)N2CCCc3ccccc32)cc(OC)c1OC | 10.7%
71 | CC(C)C(C)(C#N)NC(=O)CSc1nncn1-c1ccccc1 (stereo not shown) | 12.2%
72 | CCC1(c2ccccc2)C(=O)N(COC)C(=O)N(COC)C1=O | 16.8%
73 | CC(OC(=O)CCN=C1NS(=O)(=O)c2ccccc21)C(=O)N(C)C1CCCCC1 (stereo not shown) | 17.3%
74 | Cc1c(Br)c(C(F)(F)F)nn1CC(=O)NCc1ccccc1 | 19.1%
75 | O=C(CSc1nc(-c2ccccc2)c(-c2ccccc2)[nH]1)NCC1CCCO1 (stereo not shown) | 11.7%
76 | CCC(C)(C)n1nnnc1C(c1ccccc1F)N1CCN(C(=O)c2ccco2)CC1 (stereo not shown) | -2.07%
77 | COc1ccccc1NCc1ccc([N+](=O)[O-])s1 | -9.71%
78 | CCOC(=O)c1cccc(C(=O)Nc2nc3ccc(OC)cc3s2)n1 | 11.6%
79 | Cc1ccc(S(=O)(=O)N2CCC(=O)N(C(COCc3cccc(C(F)(F)F)c3)C(C)C)CC2)cc1 (stereo not shown) | 0.419%
80 | Fc1cccc(NC(=S)NCc2ccccc2Cl)c1 | 13.8%
81 | N#Cc1ccsc1NC(=O)CN1CCN(c2ccc(O)cc2)CC1 | 6.33%
82 | Cc1nnc(NC(=O)c2cccc(S(=O)(=O)N3CCCC3)c2)s1 | 10.1%
83 | O=C(NCCN1CCOCC1)/C(=C/c1ccc(F)cc1)NC(=O)c1ccccc1 | -58.4%
84 | NC(=O)NC(=O)CSc1nnc(-c2ccc(Cl)cc2)n1CC1CCCO1 (stereo not shown) | 16.1%
85 | O=C(Nc1cccc(O)c1)C1CC(c2ccc(Cl)cc2)=NO1 (stereo not shown) | 1.25%
86 | O=C(CSc1ccc(-c2ccncc2)nn1)N1CCCC1 | 2.04%
87 | CCOc1ccccc1N(CC(=O)N1CCCCCC1)S(=O)(=O)c1ccc(C)cc1 | 3.7%
88 | Cc1cc(CN2CCCCC2C(=O)Nc2ccc(Oc3cccnc3)cc2)oc1C (stereo not shown) | 7.01%
89 | COc1cccc(-c2cc(C(=O)NCC3CCCO3)c3cc(C)cc(C)c3n2)c1 (stereo not shown) | 14.8%
90 | O=C(NC(=S)N1CCCCC1)c1cccnc1 | 14.3%
91 | O=C(NC(=S)Nc1ccc(N2CCCCC2)c(Cl)c1)c1cccs1 | 3.59%
